# Results published in the supplement of paper PMC10338343.
# ± gives the standard deviation. The list shows a part of the results, in another mix than the full data.
# Tested on: MIWI (PIWIL1) piRISC loaded with piRNA #1 (30 nt)
# Test: pre-steady-state target cleavage rate (min^-1); MIWI and MILI are mouse PIWI proteins and EfPiwi is from a freshwater sponge; tags in brackets are library labels; higher = faster piRNA-guided slicing of the target
# Conditions: guide: piRNA #1 5'p-UGAGGUAGUAGGUUGUAUAGUAUCCAGAGG; auxiliary factor: 500 nM mouse GTSF1
# In short: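 The pre-steady-state cleavage rate was obtained by Cleave-'n-Seq with a burst-and-steady-state fit. A transcribed, DNA-blocked target RNA library (0.1 nM) was mixed with 1 nM active affinity-purified piRISC carrying one synthetic guide, with or without 500 nM GTSF1 partner protein, in HEPES–potassium acetate buffer at 33 °C for 0–8 or 0–960 min. Uncleaved targets were sequenced and normalised to depth and to weakly complementary targets, with three trials pooled and k3 capped at 0.0001 min^-1.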
row,Sequence,pre-steady-state target cleavage rate
1,GGAGAGGAUACUAUACAAUCUACUACCUCA,0.34 ± 0.016
2,GCUCUGGUUACUAAACAACCUACUACCUCA,1.84 ± 0.11
3,GGUCUGGAUACUAUACAACUACUACCUCA,0.438 ± 0.042
4,GGAGACCUAUGAUAUGUACUCUACUACCUCA,< 0.0001
5,GGAGACCUAUGAUAUGUUGGUACUAACCUCA,< 0.0001
6,GGUCUGGAUACUAUUACAACCUACUACCUCA,1.74 ± 0.12
7,GGACUGGAUACUAUACAAGCUAGUACCUCA,0.287 ± 0.061
8,GGUCUGGAUACUAUUCAACCUACUUCCUCA,0.0113 ± 0.0031
9,GGAGACCUAUCUAUACCACCUACUACCUCA,0.316 ± 0.026
10,GGAGACCAUACUAUACAACGUACUACCUCA,0.647 ± 0.043
11,GGAGACCUUACUAUAGAACCUACUAGCUCA,0.00437 ± 0.0042
12,GGAGACCUAACUAUAGAACGUACUACCUCA,0.0793 ± 0.015
13,GGACUGGAUACUAUACUUGCUACUACCUCA,0.0254 ± 0.0063
14,GGACUGGAUACUUUACAAGCUACUACCUCA,0.959 ± 0.059
15,GGAGUGGAUACUAUACAACCUACUACCUCU [g2:g26:cont:t1U],1.4 ± 0.09
16,GGAGACCUUACUUAUCAACCUACUACCUCA,0.014 ± 0.0046
17,GGAGUGGAUACUAUACAACCUUGAUGGAGA [g10:g26:cont:t1A],< 0.0001
18,GGAGACCUAUCUAUACAACCUACUAGCACA,0.132 ± 0.028
19,GGAGACCAAACUAUAGAACCUACUACCUCA,0.68 ± 0.071
20,CCUCUCGAUACUUUACAACCUACUACCUCA,2.13 ± 0.14
21,GGAGUGGUUACUAUACAACCUACUACCUGA,0.29 ± 0.046
22,GCUCAGGAUUCUAUACAACCUACUACCUCA,1.87 ± 0.092

row,Sequence,pre-steady-state target cleavage rate
1,GGAGACCUAACUUUACAACCUACUACCUGA,0.126 ± 0.063
2,GGAGACGAUAUCUAUACAACCUACUACCUCA,1.01 ± 0.064
3,GGAGACCAUUCUAUACAACCUACUUCCUCA,0.225 ± 0.019
4,GGAGACGAUACUAUACAACCUACUACCAUCA,0.71 ± 0.064
5,GGAGACCUUACUUUACAAGCUACUACCUCA,0.553 ± 0.039
6,CCUCUGCAUACUAUACAACCUACUUCCUCA,0.728 ± 0.044
7,GGAGACCUAUCUAGUACAACCUACUACCUCA,0.0981 ± 0.017
8,GGUCUGGAUACUAUACAACCUUCUACCACA,0.221 ± 0.036
9,GCUCUGGAUACUAUACAUCCUAGUACCUCA,0.466 ± 0.054
10,GGAGUGGAUAGUAUAGAACCUACUACCUCA,0.836 ± 0.057
11,GGAGUGGAGACUAUACAACCUACUACCUCA,1.65 ± 0.099
12,GGAGAGGAUACUAUUCAACCUACUUCCUCA,0.192 ± 0.049
13,CCUCUGGAUACUAUACAAGCUAGUACCUCA,0.0933 ± 0.023
14,GGAGACGAUGCUAUACAACCUACUACCUCA,1.98 ± 0.14
15,GGAGUGGAUACAAUACAACCUACUACCUGA,0.272 ± 0.041
16,GGAGACCAUACUAUACAACCUACAACCACA,0.348 ± 0.034
17,CCUCUGGAUACUAUAUAACCUACUACCUCA,2.07 ± 0.12
18,GGAGACGAUACUAUACAACCUACAAGCUCA,0.219 ± 0.049
19,CCUCUGGAUACUAUACGAACCUACUACCUCA,0.0165 ± 0.0067
20,GGACUGGAUACUAUACAACCUACUCCCUCA,0.245 ± 0.039
21,GGUCAGGAUACUAUACAACCUACUACCACA,1.33 ± 0.11
22,GCUCUGGAAACUAUACAACCUACUACCUGA,0.961 ± 0.17

row,Sequence,pre-steady-state target cleavage rate
1,GGAGUGGAUACUAUACUACCUAGUACCUCA,0.283 ± 0.04
2,GGAGACCUAUGUAUACAACCUACUACGCUCA,0.175 ± 0.023
3,GGAGUGGUUACUAUACAACCUACUACGUCA,0.231 ± 0.035
4,GGAGACCAUACUAUACAACCUACUACCUGCA,1.66 ± 0.15
5,CCUCUGGAUACUAUUCAACCAACUACCUCA,0.135 ± 0.017
6,GGAGAGGAUACUAUUCAACCUACUACCACA,1.02 ± 0.059
7,GGAGACGAUACAUACAACCUACUACCUCA,1.11 ± 0.1
8,GGUCUGGAUACUUUACAAGCUACUACCUCA,1.08 ± 0.05
9,GGAGACCUAUCUAUACAACCUACUACUCA,0.199 ± 0.023
10,GGAGUGGAUACUAUAGAACCUACAACCUCA,0.00343 ± 0.0028
11,GCUCUGGAUAUCUAUACAACCUACUACCUCA,0.861 ± 0.052
12,GGAGUGGAUACUAUACAACCAACUACGUCA,0.079 ± 0.0092
13,GGAGUGGAUACAUAACAACCUACUACCUCA,0.621 ± 0.071
14,CCGCUGGAUACUAUACAACCUACUACCUCA,1.88 ± 0.094
15,GGAGUGGAUACUAUACAACCUAGUACCACA,< 0.0001
16,GGAGACCUAUGAUAUGUACCUACUCCCUCA,< 0.0001
17,GGAGACCUUACUAUACUACCUACUACCACA,0.385 ± 0.051
18,CCUCUGGAUAACUAUACAACCUACUACCUCA,1.25 ± 0.075
19,GGAGACCUAUGAUAUAAACCUACUACCUCA,< 0.0001
20,CCUCUGGAUAGUAAACAACCUACUACCUCA,0.207 ± 0.031
21,GGUGUGGAUACUAUACAAGCUACUACCUCA,0.873 ± 0.035
